The full ranking holds about 33,000 sequences; the median of “E-score (-0.5 to 0.5)” is about -0.04, and the highest 2% start at about 0.36. Some of the results follow.
Biological target: T1, Hmlalpha2 (UniProt P0CY09)
T1 sequence: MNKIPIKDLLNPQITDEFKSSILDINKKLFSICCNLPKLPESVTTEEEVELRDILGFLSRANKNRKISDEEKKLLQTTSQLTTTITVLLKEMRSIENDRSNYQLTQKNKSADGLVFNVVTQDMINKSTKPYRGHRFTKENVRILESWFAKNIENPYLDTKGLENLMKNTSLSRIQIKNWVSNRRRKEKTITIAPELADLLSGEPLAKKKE
Assay: PBM E-score (8-mer binding enrichment) (E-score (-0.5 to 0.5)); higher = stronger / more preferred TF binding; most listed sequences are background and not binding sites
Details: protein concentration: 200 nM; construct: GST-full length
Outline: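 The E-score, a modified Wilcoxon-Mann-Whitney statistic, was computed by the Universal PBM Analysis Suite for every ungapped eight-base word pooled with its reverse complement. Scans behind it were normalised with masliner after bound GST-tagged yeast transcription factors were detected with fluorescent anti-GST. The proteins, at about 100-200 nM, had been applied to universal all-10-mer Agilent arrays made double-stranded by primer extension.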

Sequence | PBM E-score
ACTACGAT | 0.0473
CAGGAGCC | -0.225
AGTGCGCA | -0.178
ATGCGCCG | -0.109
GTGGCACA | -0.174
AGGTTGGC | -0.123
ATGCGCTC | 0.0131
ACACCTTA | 0.16
TGATTCCA | -0.0656
AATGCAGG | 0.0917
ATTGTCGA | -0.0455
ACATAAGA | 0.282
CACATGTC | 0.22
CGTATCAA | -0.0948
GCACTTGA | 0.0926
CTGATCAG | -0.0949
AACAATAG | 0.0597
ATCACGAC | -0.0357
AGATTCTC | -0.064
CAATTCCG | -0.136
GACAGACC | -0.137
AACAGCAG | 0.114

Sequence | PBM E-score
AGATGCAA | -0.151
AACAGACA | 0.189
CATCTACC | -0.0147
AACACGGA | 0.374
ATAGTGCG | -0.138
ACTAAGTA | 0.204
CCGGCCAC | -0.256
AAGGGCGC | 0.0554
AGGTATGC | 0.119
TAAATAAA | 0.262
CAGCGTTA | -0.0524
CGGACTTA | -0.056
GACAGGTC | -0.23
GCAGGCGA | -0.0959
CCTTAAGC | -0.283
ACTGGGGC | -0.307
CGACGAGC | -0.00952
TCGGAGAA | -0.145
TCGAGCAA | 0.128
AGGACATG | 0.181
ATAGGCGA | -0.264
GGCTGACC | -0.287

Sequence | PBM E-score
AACAATCG | 0.15
CGGTCTAC | 0.114
GATAACCA | -0.14
CGTTAGTA | 0.249
CGTCCGAG | -0.136
AACTAGTG | -0.101
AGTCGGGG | -0.191
CAATCCTA | -0.127
AGACCTAG | -0.149
GGCACGCA | -0.23
CCCCTAGC | -0.325
ACAGTAAC | 0.124
ACGCGGGG | 0.0705
CACTGCTA | 0.0812
CTATCACC | -0.201
AGACGCTC | -0.355
AGATCCCA | -0.135
CTTTACAA | 0.38
CTTCTTGA | -0.0801
CTCTGCGA | -0.0391
AAATACGT | 0.246
TATGTCGA | 0.327

Sequence | PBM E-score
CTCGTTAC | 0.0938
CCGACCCC | -0.294
AAGGCTCC | -0.228
CTTGTCTA | 0.147
AACGAACG | 0.047
AGATTGTC | -0.0562
GGAGTCAA | -0.222
ACCAGAGA | -0.144
GCACTAAA | 0.0494
GGCGAATA | -0.0919
ACTGGACG | -0.103
CAGCTGGA | 0.0103
GTTAACGA | 0.248
GCTAGGCC | -0.298
AACTATGG | -0.0851
AGTATTAT | 0.137
AGAACTTC | -0.0854
CTATTTGA | 0.059
CCCACCCA | -0.227
TAATGTCA | 0.155
